Data reported in PubChem BioAssay AID504332 (National Center for Advancing Translational Sciences (NCATS), 2011).
Screen size: about 350,000 compounds; about 31,000 (8.9%) were called active. Inconclusive means that the source gave no clear call. Such entries were picked first, then a sample of the others. Calls come from the whole dose curve; as a rule, active = well fitted inhibition curve with a large enough effect; inconclusive = small, poorly fitted or top-dose-only effect; inactive = no such curve, though single readings can be large or run the other way. Potencies beside an inconclusive call are fits to weak or partial responses and may not hold up.

molecular target: Histone-lysine N-methyltransferase EHMT2 (Homo sapiens) (UniProt Q96KQ7); test: qHTS Assay for Inhibitors of Histone Lysine Methyltransferase G9a; conditions: G9a H3K9 monomethylation, AlphaScreen, 2 h; activity, negative = inhibition: at 59 µM (top of the series) unless noted; note: nearly all actives have a fitted effect of over 75% in size
How it was run: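 G9a (20 nM) preincubated 15 min RT with compounds, then 500 nM biotinylated H3K9 peptide and 20 uM SAM added; 2 h RT reaction. Monomethyl-H3K9 product detected by AlphaScreen with anti-H3K9me1 antibody, streptavidin donor and anti-rabbit IgG acceptor beads.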
% is set by controls: 0 for no effect and ±100 for the full control effect; potency is the fitted concentration of half-maximal effect; tags give direction and shape of the fitted curve.

Sequence of UniProt Q96KQ7 (Q96KQ7 whole entry, looked up): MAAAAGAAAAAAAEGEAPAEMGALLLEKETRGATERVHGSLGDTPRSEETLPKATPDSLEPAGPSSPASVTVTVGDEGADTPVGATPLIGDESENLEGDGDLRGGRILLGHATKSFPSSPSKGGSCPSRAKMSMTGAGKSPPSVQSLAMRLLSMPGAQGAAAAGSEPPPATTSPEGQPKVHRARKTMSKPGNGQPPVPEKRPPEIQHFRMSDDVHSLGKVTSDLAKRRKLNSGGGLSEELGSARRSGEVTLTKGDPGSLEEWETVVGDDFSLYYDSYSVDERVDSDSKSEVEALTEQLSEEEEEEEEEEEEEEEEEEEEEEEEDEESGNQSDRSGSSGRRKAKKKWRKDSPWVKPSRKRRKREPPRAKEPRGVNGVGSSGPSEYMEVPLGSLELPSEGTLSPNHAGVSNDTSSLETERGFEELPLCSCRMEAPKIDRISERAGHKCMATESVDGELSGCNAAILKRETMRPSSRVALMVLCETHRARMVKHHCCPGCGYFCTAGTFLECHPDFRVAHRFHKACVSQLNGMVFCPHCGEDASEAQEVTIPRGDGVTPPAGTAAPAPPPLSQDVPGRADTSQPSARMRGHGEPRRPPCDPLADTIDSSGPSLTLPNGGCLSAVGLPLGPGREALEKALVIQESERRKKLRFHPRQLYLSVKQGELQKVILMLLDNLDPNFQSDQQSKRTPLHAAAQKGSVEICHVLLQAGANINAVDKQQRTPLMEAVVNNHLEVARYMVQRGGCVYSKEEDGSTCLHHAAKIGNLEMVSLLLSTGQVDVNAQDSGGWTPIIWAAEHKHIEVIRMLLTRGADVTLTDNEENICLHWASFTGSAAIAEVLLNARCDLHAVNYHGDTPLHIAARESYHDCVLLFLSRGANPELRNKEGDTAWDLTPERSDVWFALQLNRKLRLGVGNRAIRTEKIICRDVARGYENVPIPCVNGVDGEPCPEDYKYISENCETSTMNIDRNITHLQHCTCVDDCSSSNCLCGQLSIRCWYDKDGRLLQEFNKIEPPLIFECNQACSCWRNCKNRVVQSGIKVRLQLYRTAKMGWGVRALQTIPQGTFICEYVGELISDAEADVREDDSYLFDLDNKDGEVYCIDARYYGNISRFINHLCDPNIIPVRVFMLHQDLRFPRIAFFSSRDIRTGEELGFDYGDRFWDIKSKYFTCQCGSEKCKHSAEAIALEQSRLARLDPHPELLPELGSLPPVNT

| Structure (SMILES) | Potency | activity, negative = inhibition |
| --- | --- | --- |
| N/C(=N\OC(=O)C(c1ccccc1)c1ccccc1)c1ccccn1 | inconclusive: 28.2 µM [inhibitor, single point] | – |
| CN(C(=S)NCCN1CCOCC1)C(c1ccccc1)c1ccccc1 | active: 20 µM | – |
| CC12CCC(=O)N1C(C(=O)Nc1cc(Cl)ccc1N1CCOCC1)CS2 (stereo not given) | inconclusive: 89.1 µM [inhibitor, single point] | – |
| O=C(NCc1ccc(F)cc1)c1cnc(-c2ccccn2)nc1C(F)(F)F | inconclusive: 79.4 µM [inhibitor, single point] | – |
| CC1CC(C)CN(S(=O)(=O)c2ccc(NC(=O)CN3CCCCCC3)cc2)C1 (stereo not given) | inconclusive: 50.1 µM [inhibitor, partial curve] | – |
| COc1ccc(NCc2cccn2-c2nnc(N3CCOCC3)s2)c(OC)c1 | inconclusive: 8.91 µM [inhibitor, partial curve, poor fit] | – |
| N#C/C(=C\c1cccc(OCC(=O)O)c1)c1nc2ccccc2[nH]1 | inconclusive: 89.1 µM [inhibitor, single point] | – |
| CC(C)(C)n1nnnc1C(c1ccncc1)N1CCN(c2ccc(O)cc2)CC1 (stereo not given) | – | inconclusive: -122% [inhibitor] |
| Cc1ccc(C(=O)Nc2ccccc2N2CCCCC2)o1 | inactive | – |
| CC(C)c1ccc(/C=N/NC(=O)c2nnn(-c3nonc3N)c2CN2CCOCC2)cc1 | inconclusive: 89.1 µM [inhibitor, single point] | – |
| CCOC(=O)C1=C(c2ccccc2)Nc2c(c(=O)n(C)c(=O)n2C)C1c1ccc(O)c(OC)c1 (stereo not given) | inconclusive: 89.1 µM [inhibitor, single point] | – |
| O=C1c2ccccc2C(=O)N1Nc1ccccc1 | – | inactive: 0.158% [at 0.0925 µM] |
| Cc1ccc(OCCOCCn2ccnc2)c(Br)c1 | active: 7.94 µM | – |
| Cn1c(COc2ccccc2)nnc1SCC(=O)Nc1ccc2c(c1)OCO2 | inactive | – |
| CCOc1ccc(NC(=O)CN(C)C(=O)CSCc2cccc(C)c2)cc1OCC | inconclusive: 35.5 µM [inhibitor, partial curve] | – |
| CN1CCN(S(=O)(=O)c2ccc(Oc3ccc(Br)cc3F)nc2)CC1 | inconclusive: 3.98 µM [inhibitor, full curve] | – |
| Cc1ccc(C(NC(=O)N2CCCCC2)=C(Cl)Cl)cc1F | inactive | – |
| CSc1cccc(NC(=O)C(C)Sc2ccc(C)cc2)c1 (stereo not given) | inactive | – |
| CCOc1ccccc1CNC(=O)c1cccc(NC(=O)c2nsc3ccccc23)c1 | inactive | – |
| COc1ccc(N2CCN(c3cc(C)nc4ccc(OC)cc34)CC2)cc1 | active: 50.1 µM | – |
| O=C(CNC(=O)N1CC(=O)Nc2ccccc21)NCc1ccccc1 | inactive | – |
| COc1ccccc1NC(=O)c1ccc(C(=O)Nc2ccccc2OC)nc1 | inconclusive: 70.8 µM [inhibitor, single point] | – |
| Cc1ccc(NC(=O)CC(O)(C(F)(F)F)C(F)(F)F)cc1 | inactive | – |
| O=C(NCc1n[nH]c(=S)n1Cc1ccccc1)c1ccc(Cl)cc1Cl | inconclusive: 6.31 µM [inhibitor, full curve, poor fit] | – |
| COc1cc(/C=N/Nc2ccccc2[N+](=O)[O-])cc(OC)c1O | active: 7.08 µM | – |

| Structure (SMILES) | Potency | activity, negative = inhibition |
| --- | --- | --- |
| CCN=C1S/C(=C\c2ccc(OCC)c(OC)c2)C(=O)N1CC | inactive | – |
| Cc1ccc(-c2[nH]c3ccccc3c2C(C[N+](=O)[O-])c2ccco2)cc1 (stereo not given) | inconclusive: 31.6 µM [inhibitor, partial curve, poor fit] | – |
| Cn1nnc(NC(=S)NC(=O)c2cccs2)n1 | active: 0.794 µM | – |
| O=C(CCCCCN1C(=O)CCC1=O)Nc1ccc(Cl)c(C(F)(F)F)c1 | inconclusive: 2.82 µM [inhibitor, partial curve, poor fit] | – |
| O=C(Cn1c(=O)oc2ccccc21)Nc1ccc2c(c1)OCCO2 | inconclusive: 0.178 µM [inhibitor, partial curve, poor fit] | – |
| COc1cc(/C=C(\C#N)C(=O)c2c(C)[nH]c3ccccc23)cc(OC)c1OC | active: 44.7 µM | – |
| O=C(c1cccs1)N1CCN(Cc2cccnc2)CC1 | active: 11.2 µM | – |
| Cc1cc(C)c(Cn2c(C)c(CNCCCc3ccccc3)c(C(=O)O)c2C)c(C)c1 | inactive | – |
| Cc1ccc(C(=O)NCC(=O)OCC(=O)c2ccc3c(c2)OCCO3)cc1C | inconclusive: 89.1 µM [inhibitor, single point] | – |
| COc1ccc(C2c3[nH]c4ccccc4c3C[C@H]3C(=O)N(C4CCN(Cc5ccccc5)CC4)CC(=O)N23)c(OC)c1 (stereo not given in full) | inconclusive: 79.4 µM [inhibitor, single point] | – |
| CCN(CC(=O)N1CCN(Cc2ccccc2)CC1)S(=O)(=O)c1ccc(C)cc1 | inactive | – |
| COc1cccc(/C=N/NC(=S)Nc2cccc(S(=O)(=O)N(C)C)c2)c1 | active: 8.91 µM | – |
| CCNc1ncc2nc(-c3cn(C)c4ccccc34)c(=O)n(Cc3ccc(F)cc3)c2n1 | – | inactive: -8.74% [at 0.501 µM] |
| COc1ccc(-c2noc(CN(Cc3nccn3C)C(C)C)n2)cc1 | – | inconclusive: -73.5% [inhibitor] |
| Cc1ccc(C(C(=O)NC(C)(C)C)N(CC2CCCO2)C(=O)Cn2nnc(-c3ccc(C)o3)n2)cc1 (stereo not given) | active: 44.7 µM | – |
| C/C(=N/NC(N)=S)c1ccccc1[N+](=O)[O-] | inconclusive: 5.62 µM [inhibitor, full curve] | – |
| CC1CCCCN1c1nc2nonc2nc1N1CCCCC1C (stereo not given) | inconclusive: 20 µM [inhibitor, single point] | – |
| Cc1cc(C=O)c(C)n1-c1ccc(N2CCCC2)c([N+](=O)[O-])c1 | inconclusive: 56.2 µM [inhibitor, partial curve, poor fit] | – |
| O=C(O)c1cc(-c2cccs2)nc2ccc(Br)cc12 | inconclusive: 100 µM [inhibitor, single point] | – |
| Brc1ccc(-c2csc(NC3=NCCCCC3)n2)cc1 | inactive | – |
| Cc1cccc(NC(=O)c2cnn(-c3ccccc3)c2-n2cccc2)c1C | inactive | – |
| CCN(CC)S(=O)(=O)c1ccc(N2CCOCC2)c(NC(=O)CC(C)(C)C)c1 | active: 79.4 µM | – |
| COc1ccc(-c2nnc(-c3cccs3)o2)cc1OC | inactive | – |
| COc1ccc(-c2cc(C(=O)Nc3c(C(=O)c4ccc(Cl)cc4)oc4ccccc34)no2)cc1 | inactive | – |
| COc1ccc(-c2cc(C(F)(F)F)nc(SCC(=O)N3CCOCC3)n2)cc1OC | inconclusive: 11.2 µM [inhibitor, partial curve, poor fit] | – |

| Structure (SMILES) | Potency | activity, negative = inhibition |
| --- | --- | --- |
| CNc1nc(-c2ccc3c(c2)CCN3C(=O)c2ccccc2F)cs1 | active: 50.1 µM | – |
| CCCCNC(=O)CSc1nc2ccc(Nc3nc(N4CCOCC4)nc(N4CCOCC4)n3)cc2s1 | inconclusive: 31.6 µM [inhibitor, single point] | – |
| CC(=O)N1CCCc2cc(S(=O)(=O)N3CCC(C(=O)NCCC(C)C)CC3)ccc21 | inactive | – |
| CC(/C=C/c1ccco1)=N\NC(=O)COc1ccc(C)c(C)c1 | active: 39.8 µM | – |
| Cc1cccc(-n2cc(-c3ccccc3)[nH]c2=S)c1 | active: 25.1 µM | – |
| CCOC(=O)C1CCN(C(=O)c2sc3nc(-c4ccccc4)cn3c2C)CC1 | inconclusive: 89.1 µM [inhibitor, single point] | – |
| O=C(CN1C(=O)C2CC=CCC2C1=O)Nc1ccc(S(=O)(=O)Nc2nccs2)cc1 (stereo not given) | inconclusive: 70.8 µM [inhibitor, single point] | – |
| O=C(COC(=O)CCC(=O)c1ccc(Cl)cc1)NCCc1ccccc1 | inconclusive: 100 µM [inhibitor, single point] | – |
| COc1ccccc1NC(=O)n1ncc2c(C)cccc21 | inactive | – |
| O=C(Nc1cc2c3c(c1)C1CCCC1CN3CC1CCCC21)c1ccccc1 (stereo not given) | active: 8.91 µM | – |
| COc1cc(/C=N\Nc2nncn2N)ccc1OC(C)=O | active: 70.8 µM | – |
| Cn1cc(S(=O)(=O)NCCc2ccccc2)c(=O)n(C)c1=O | inactive | – |
| CCN(CC)S(=O)(=O)c1cc(C(=O)Nc2cccnc2)ccc1Cl | inconclusive: 22.4 µM [inhibitor, single point] | – |
| CC(C)CCN1NC2(CCC(C)CC2)NC1=S (stereo not given) | active: 11.2 µM | – |
| O=c1[nH]c(SCc2ccccc2Cl)nc2c1CCC2 | – | inactive: 6.18% [at 12.7 µM] |
| CCc1ccc(S(=O)(=O)c2nnn3c2nc(N2CCOCC2)c2ccccc23)cc1 | inconclusive: 39.8 µM [inhibitor, partial curve, poor fit] | – |
| O=C(NCCCN1CCN(CCCNC(=O)c2ccccc2F)CC1)c1ccccc1F | inactive | – |
| Cc1ccccc1OCC(=O)NC(=S)Nc1ccc(N2CCOCC2)c(Cl)c1 | inconclusive: 25.1 µM [inhibitor, single point] | – |
| COc1cc(OC)c(C2=NOC(C(=O)NCCc3ccccc3)C2)cc1Cl (stereo not given) | inconclusive: 28.2 µM [inhibitor, partial curve, poor fit] | – |
| CCOC(=O)N1CCN(C(=O)CNC(=O)Cn2cnc3ccccc3c2=O)CC1 | inactive | – |
| CC(=O)c1cccc(-n2c(CCC(=O)O)ccc2-c2cccs2)c1 | inconclusive: 8.91 µM [inhibitor, single point] | – |
| Nc1c(N(Cc2ccco2)C(=O)c2ccccc2F)c(=O)[nH]c(=O)n1Cc1ccccc1 | inactive | – |
| O=C(O)c1cc(N2C(=O)CCC2=O)ccc1Cl | inconclusive: 14.1 µM [inhibitor, partial curve, poor fit] | – |
| COc1ccc(C2NC(Cc3ccccc3)(C(=O)O)C3C(=O)N(c4ccccc4OC)C(=O)C23)cc1 (stereo not given) | active: 50.1 µM | – |
| CCOC(=O)c1[nH]c2ccc(OCC)cc2c1NC(=O)CN1CCN(c2ccccn2)CC1 | inconclusive: 79.4 µM [inhibitor, single point] | – |
